From a collection of fitness landscapes (doi:10.1126/science.1257360)
Some of the results follow.

B1: PhoQ; a variant is named by its letters at X, in order, P23837 (parent)
chain: MKKLLRLFFPLSLRVRFLLATAAVVLVLSLAYGMVALIGYSVSFDKTTFRLLRGESNLFYTLAKWENNKLHVELPENIDKQSPTMTLIYDENGQLLWAQRDVPWLMKMIQPDWLKSNGFHEIEADVNDTSLLLSGDHSIQQQLQEVREDDDDAEMTHSVAVNVYPATSRMPKLTIVVVDTIPVELKSSYMVWSWFIYVLSANLLLVIPLLWVAAWWSLRPIEALAKEVRELEEHNRELLNPATTRELTSLVRNLNRLLKSERERYDKYRTTLTDLTHSLKTPLXXLQXXLRSLRSEKMSVSDAEPVMLEQISRISQQIGYYLHRASMRGGTLLSRELHPVAPLLDNLTSALNKVYQRKGVNISLDISPEISFVGEQNDFVEVMGNVLDNACKYCLEFVEISARQTDEHLYIVVEDDGPGIPLSKREVIFDRGQRVDTLRPGQGVGLAVAREITEQYEGKIVAGESMLGGARMEVIFGRQHSAPKDE

Variants of: B1
Experiment: enrichment ratio after two sorts for PhoP signalling (ratio (wild type AVST 3.29)); higher = more functional
Conditions: with PhoP (E. coli)

| Variant | enrichment ratio |
| --- | --- |
| NGHN | ≤ 0.25 |
| SIQI | 10.2 |
| HSYV | ≤ 0.25 |
| LLIY | ≤ 0.25 |
| IMIE | ≤ 0.25 |
| STFA | ≤ 0.25 |
| LVIF | ≤ 0.25 |
| TVLC | 6.08 |
| ITLD | ≤ 0.25 |
| DTFE | ≤ 0.25 |
| FTNE | ≤ 0.25 |
| VCHC | ≤ 0.25 |
| ERYY | ≤ 0.25 |
| MHHF | ≤ 0.25 |
| TAEG | 1.55 |
| RYVM | ≤ 0.25 |
| AQHW | ≤ 0.25 |
| TRSC | 0.581 |
| LHAS | ≤ 0.25 |
| LFVA | ≤ 0.25 |
| VDQK | ≤ 0.25 |
| LLYR | ≤ 0.25 |
| IMDD | ≤ 0.25 |
| MHQS | ≤ 0.25 |

| Variant | enrichment ratio |
| --- | --- |
| DAHR | ≤ 0.25 |
| VHMW | ≤ 0.25 |
| QEVF | ≤ 0.25 |
| KRFC | ≤ 0.25 |
| HPDG | ≤ 0.25 |
| KCDP | ≤ 0.25 |
| TFYA | ≤ 0.25 |
| MGKV | ≤ 0.25 |
| REPH | ≤ 0.25 |
| WAQW | ≤ 0.25 |
| GLHL | ≤ 0.25 |
| IKRF | ≤ 0.25 |
| YRFW | ≤ 0.25 |
| QHWL | ≤ 0.25 |
| MSDM | 0.744 |
| KCSQ | ≤ 0.25 |
| QFPY | ≤ 0.25 |
| VSYY | ≤ 0.25 |
| HITQ | ≤ 0.25 |
| FVSV | ≤ 0.25 |
| TPHV | ≤ 0.25 |
| WNDD | ≤ 0.25 |
| KFGN | ≤ 0.25 |
| YCRG | ≤ 0.25 |

| Variant | enrichment ratio |
| --- | --- |
| GGVQ | ≤ 0.25 |
| YEYS | ≤ 0.25 |
| EFYL | ≤ 0.25 |
| MSST | 0.476 |
| SYDQ | ≤ 0.25 |
| YWFC | ≤ 0.25 |
| FGRE | ≤ 0.25 |
| EGAQ | ≤ 0.25 |
| IMAD | ≤ 0.25 |
| WRWW | ≤ 0.25 |
| DDTQ | ≤ 0.25 |
| QEIH | ≤ 0.25 |
| FQRY | ≤ 0.25 |
| AAKP | ≤ 0.25 |
| VAHL | 1.14 |
| SPDK | ≤ 0.25 |
| LHCT | ≤ 0.25 |
| IGYK | ≤ 0.25 |
| VHEI | ≤ 0.25 |
| IWRY | ≤ 0.25 |
| GKFG | ≤ 0.25 |
| MFKN | ≤ 0.25 |
| HQGP | ≤ 0.25 |
| MECW | ≤ 0.25 |

| Variant | enrichment ratio |
| --- | --- |
| LKGG | ≤ 0.25 |
| VHTP | ≤ 0.25 |
| LMQQ | ≤ 0.25 |
| PQNY | ≤ 0.25 |
| MLPY | ≤ 0.25 |
| VFAD | ≤ 0.25 |
| FSDI | ≤ 0.25 |
| CYSM | ≤ 0.25 |
| RYTD | ≤ 0.25 |
| PEMN | ≤ 0.25 |
| ANVD | ≤ 0.25 |
| KYPK | ≤ 0.25 |
| FATL | 0.78 |
| IEDL | ≤ 0.25 |
| FVNP | ≤ 0.25 |
| FKWD | ≤ 0.25 |
| DCYQ | ≤ 0.25 |
| QGTD | ≤ 0.25 |
| MMTW | ≤ 0.25 |
| LQQP | ≤ 0.25 |
| GVPH | ≤ 0.25 |
| MPFP | ≤ 0.25 |
| FINF | 2.48 |
| DTIH | ≤ 0.25 |

| Variant | enrichment ratio |
| --- | --- |
| PWHA | ≤ 0.25 |
| QINY | ≤ 0.25 |
| HQAE | ≤ 0.25 |
| HMHL | ≤ 0.25 |
| MVTS | ≤ 0.25 |
| NKWV | ≤ 0.25 |
| TVVI | ≤ 0.25 |
| IQHP | ≤ 0.25 |
| WTNH | ≤ 0.25 |
| FEDQ | ≤ 0.25 |
| TSEL | 9.95 |
| WSHD | ≤ 0.25 |
| HWQS | ≤ 0.25 |
| TFRY | ≤ 0.25 |
| HWTE | ≤ 0.25 |
| NASD | ≤ 0.25 |
| SQPC | ≤ 0.25 |
| IRGE | ≤ 0.25 |
| MHAP | ≤ 0.25 |
| WEFS | ≤ 0.25 |
| YDLQ | ≤ 0.25 |
| AKKG | ≤ 0.25 |
| NPYI | ≤ 0.25 |
| NFPG | ≤ 0.25 |

| Variant | enrichment ratio |
| --- | --- |
| RRQQ | ≤ 0.25 |
| IGFS | ≤ 0.25 |
| YKDV | ≤ 0.25 |
| GGRK | ≤ 0.25 |
| GNND | ≤ 0.25 |
| YFGP | 0.289 |
| ARKF | ≤ 0.25 |
| RKDY | ≤ 0.25 |
| WVHA | ≤ 0.25 |
| DFIE | ≤ 0.25 |
| QVSG | 1.56 |
| ACTC | 4.29 |
| GWAN | ≤ 0.25 |
| RYGG | ≤ 0.25 |
| YICD | ≤ 0.25 |
| ALRA | ≤ 0.25 |
| YTYK | ≤ 0.25 |
| DLLY | ≤ 0.25 |
| IGRQ | ≤ 0.25 |
| QVYW | ≤ 0.25 |
| FNWP | ≤ 0.25 |
| RAQC | ≤ 0.25 |
| YPTR | ≤ 0.25 |
| HHWI | ≤ 0.25 |

| Variant | enrichment ratio |
| --- | --- |
| STKH | ≤ 0.25 |
| SMRI | ≤ 0.25 |
| SHPE | ≤ 0.25 |
| PWIT | ≤ 0.25 |
| SQPS | ≤ 0.25 |
| TLNL | ≤ 0.25 |
| NDCW | ≤ 0.25 |
| WWFF | ≤ 0.25 |
| NSVT | ≤ 0.25 |
| PIYT | ≤ 0.25 |
| DRDV | ≤ 0.25 |
| ASQK | ≤ 0.25 |
| IEKF | ≤ 0.25 |
| IHCT | ≤ 0.25 |
| QMHN | ≤ 0.25 |
| QMFD | ≤ 0.25 |
| QVCG | ≤ 0.25 |
| MSLP | ≤ 0.25 |
| IKCT | ≤ 0.25 |
| QMNM | ≤ 0.25 |
| GWIQ | ≤ 0.25 |
| GVLF | 10.3 |
| NTNL | ≤ 0.25 |
| WVAD | ≤ 0.25 |

| Variant | enrichment ratio |
| --- | --- |
| TQCY | 15.8 |
| TYEF | ≤ 0.25 |
| SRPK | ≤ 0.25 |
| KQMI | ≤ 0.25 |
| NHWE | ≤ 0.25 |
| GYIF | ≤ 0.25 |
| LIPM | 1.53 |
| VIDL | ≤ 0.25 |
| QSQS | ≤ 0.25 |
| MFWT | ≤ 0.25 |
| YRMN | ≤ 0.25 |
| RIIA | ≤ 0.25 |
| EFEY | ≤ 0.25 |
| GNAH | ≤ 0.25 |
| IDLH | ≤ 0.25 |
| NWGC | ≤ 0.25 |
| IWYP | ≤ 0.25 |
| MEFQ | 3.08 |
| VCQW | ≤ 0.25 |
| QVSD | ≤ 0.25 |
| SNRT | ≤ 0.25 |
| WLWT | ≤ 0.25 |
| FRGQ | ≤ 0.25 |
| QGAF | ≤ 0.25 |

| Variant | enrichment ratio |
| --- | --- |
| IKNF | ≤ 0.25 |
| YQYP | ≤ 0.25 |
| WTPR | ≤ 0.25 |
| GWIN | ≤ 0.25 |
| YVHH | ≤ 0.25 |
| YTES | ≤ 0.25 |
| WATI | ≤ 0.25 |
| VGQA | ≤ 0.25 |
| VSQM | ≤ 0.25 |
| WQRW | ≤ 0.25 |
| PDQP | ≤ 0.25 |
| DHGG | ≤ 0.25 |
| SPRT | ≤ 0.25 |
| YWGQ | ≤ 0.25 |
| GACP | ≤ 0.25 |
| FMYT | ≤ 0.25 |
| THWT | 4.42 |
| VTGN | ≤ 0.25 |
| NRIE | ≤ 0.25 |
| WHRS | ≤ 0.25 |
| EYAF | ≤ 0.25 |
| ILGI | ≤ 0.25 |
| FPVP | ≤ 0.25 |
| LFPG | ≤ 0.25 |

| Variant | enrichment ratio |
| --- | --- |
| MELA | ≤ 0.25 |
| NDPV | ≤ 0.25 |
| TNDL | ≤ 0.25 |
| EYRW | ≤ 0.25 |
| VRPY | ≤ 0.25 |
| KTLG | ≤ 0.25 |
| ENPT | ≤ 0.25 |
| LGHS | ≤ 0.25 |
| DWIR | ≤ 0.25 |
| DTNN | ≤ 0.25 |
| GGDN | ≤ 0.25 |
| ASGE | 4.1 |
| RLQW | ≤ 0.25 |
| MMGF | ≤ 0.25 |
| HFNH | ≤ 0.25 |
| ARSY | ≤ 0.25 |
| NILA | ≤ 0.25 |
| MPCF | ≤ 0.25 |
| PFNN | ≤ 0.25 |
| GRQY | ≤ 0.25 |
| MCIV | ≤ 0.25 |
| TWSH | ≤ 0.25 |
| GTCA | ≤ 0.25 |
| RQEA | ≤ 0.25 |

| Variant | enrichment ratio |
| --- | --- |
| YSVN | ≤ 0.25 |
| RWPW | ≤ 0.25 |
| MGHK | ≤ 0.25 |
| LGCQ | ≤ 0.25 |
| LQNQ | ≤ 0.25 |
| PHYF | ≤ 0.25 |
| KHLV | ≤ 0.25 |
| MAHT | ≤ 0.25 |
| WQYS | ≤ 0.25 |
| IRPR | ≤ 0.25 |
| YEPM | ≤ 0.25 |
| PPLP | ≤ 0.25 |
| YTAT | ≤ 0.25 |
| MKLP | ≤ 0.25 |
| EPSI | ≤ 0.25 |
| ATVR | 4.36 |
| FSLD | ≤ 0.25 |
| RLGV | ≤ 0.25 |
| NWPC | ≤ 0.25 |
| GTVL | 7.4 |
| AHLF | 7.38 |
| VTSK | ≤ 0.25 |
| PELD | ≤ 0.25 |
| TMMI | 0.351 |

| Variant | enrichment ratio |
| --- | --- |
| PDQH | ≤ 0.25 |
| DKQF | ≤ 0.25 |
| HQSL | ≤ 0.25 |
| YAKR | ≤ 0.25 |
| RKWH | ≤ 0.25 |
| HCYN | ≤ 0.25 |
| PFYQ | 3.49 |
| KANG | ≤ 0.25 |
| GDYA | ≤ 0.25 |
| HVYL | ≤ 0.25 |
| EVYK | ≤ 0.25 |
| IEHH | ≤ 0.25 |
| QNWF | ≤ 0.25 |
| PHKN | ≤ 0.25 |
| ITAD | ≤ 0.25 |
| ATDA | ≤ 0.25 |
| VRQV | ≤ 0.25 |
| STQD | ≤ 0.25 |
| IMFA | ≤ 0.25 |
| SIDL | ≤ 0.25 |
| YPLM | ≤ 0.25 |
| FLYY | ≤ 0.25 |
| HYDF | 7.09 |
| QQGL | ≤ 0.25 |

| Variant | enrichment ratio |
| --- | --- |
| SWHL | 0.549 |
| QCIW | ≤ 0.25 |
| LFVF | ≤ 0.25 |
| HQCT | ≤ 0.25 |
| VWNK | ≤ 0.25 |
| IQPL | ≤ 0.25 |
| VITY | ≤ 0.25 |
| ISGP | ≤ 0.25 |
| FLEE | ≤ 0.25 |
| QVYD | ≤ 0.25 |
| HWST | ≤ 0.25 |
| KQHH | ≤ 0.25 |
| MRGH | ≤ 0.25 |
| NQTH | ≤ 0.25 |
| HLML | ≤ 0.25 |
| DFGI | ≤ 0.25 |
| YKHV | ≤ 0.25 |
| HSTN | ≤ 0.25 |
